Data: PubChem BioAssay (NCATS)
Inconclusive results, whose numbers are uncertain, are shown with a selection of clear calls. No potency is given beside an inconclusive call; the fits are too rough. Activity calls are given as the source filed them. Calls follow the shape of the dose curve; as a rule, active = well fitted cell-killing curve with a large enough effect; inconclusive = small, poorly fitted or top-dose-only effect; inactive = no such curve, though single readings can be large or run the other way.

Assay: qHTS of pediatric cancer cell lines to identify multiple opportunities for drug repurposing: Primary screen for A673 cells (AID 1347092); also: nearly all actives have a fitted effect of over 45% in size
Details: A673 Ewing sarcoma viability, CellTiter-Glo ATP luminescence, 48 h; activity change, negative = cytotoxic: at 46 µM (top of the series)
Description: Drug repurposing or repositioning has been offered as a strategy for drug development in oncology programs. This approach has special potential for childhood cancers and other rare or orphan diseases, where the expected return on new drug development has been a disincentive to pharmaceuticals. […] In this project we exploit the poly-pharmacology of drugs to discover new indications via phenotypic screening of a panel of 19 well-characterized cell lines derived from solid tumors seen in children and adolescents. The goal is to identify approved drugs with previously unrecognized anticancer properties that has the potential to reveal new mechanisms and biological processes involved in carcinogenesis or drug resistance. We employed a titration-based paradigm (quantitative high-throughput screening or qHTS), where all compounds were tested at multiple concentrations for their effect on cell viability. Concentration-response curves (CRCs) were derived directly from the primary screen, and both potency and efficacy values were used to identify compounds with robust bioactivity profiles. We screened the NIH Chemical Genomics Center (NCGC) Pharmaceutical Collection (NPC) and Mechanism Interrogation Plate (MIPE) small molecule collections of approved and investigational compounds against these cell lines; and measured metabolically active cells after 48 hours of compound treatment as a proxy for cell viability. […] Assay Submitter: Nathalia J. Martinez, National Center for Advancing Translational Sciences, National Institutes of Health, Rockville, MD, USA; email: natalia.martinez@nih.gov. Shen, M et al. Quantitative high-throughput phenotypic screening of pediatric cancer cell lines identifies multiple opportunities for drug repurposing. Oncotarget 2017 Dec 19;9(4):4758-4772. PMID 29435139.
The cells were obtained from University of North Carolina (UNC), Pediatric Preclinical Testing Program (PPT), and Coriell Institute (CI). qHTS cell viability assay: Cells were assayed in growth media at a density of 500-1,000 cells/well. Five microliters of cells were dispensed into 1,536-well, white, solid-bottom, TC-treated plates (Greiner Bio One) using a multidrop dispenser and incubated at 37 degrees C, 5% CO2, under a humidified atmosphere for 5 hours. Twenty-three nanoliters of compounds and controls (neutral control DMSO or positive control bortezomib at final concentration of 2.3 uM) were subsequently transferred by Kalypsys pintool. For primary screens, the MIPE collection was tested at 11-point dilutions (final concentrations range from 0.78 nM to 46 µM) and the NPC collection at 8-point dilutions (final concentrations range from 0.59 nM to 46 µM). Compounds tested in follow-up screens were assayed at 11-point dilutions. Cells were incubated for 48 hours, followed by addition of 3 uL of CellTiter-Glo (Promega). After a 15min incubation at room temperature, samples were analyzed for luminescence intensity using a ViewLux High-throughput CCD imager equipped with clear filters.
% is scaled to controls: 0 for no effect and ±100 for the full control effect; potency is read from the fitted curve at half-maximal effect; tags tell the direction and shape of the fitted curve.

Structure (SMILES)	Potency	activity change, negative = cytotoxic
O=[N+]([O-])c1ccc(/C=N\O)o1	inconclusive [cytotoxic, single point]	
Cc1cc(Nc2nc(N[C@@H](C)c3ncc(F)cn3)ncc2Cl)n[nH]1	active: 1.18 µM	
C[C@]12CC[C@H]3[C@@H](CCC4=CC(=O)CC[C@@]43C)[C@@H]1CC[C@@H]2C(=O)CO	inactive	
O=C1NCCN1CCN1CCC(c2cn(-c3ccc(F)cc3)c3ccc(Cl)cc23)CC1	inconclusive [cytotoxic, single point]	
C[C@H]1[C@@H](OC(=O)CCC(=O)O)O[C@@H]2O[C@@]3(C)CC[C@@H]4[C@H](C)CC[C@@H]1[C@@]24OO3	active: 5.9 µM	
C[C@@H](O)[C@H]1C(=O)N2C(C(=O)O)=C(SCCN=CN)C[C@H]12	inactive	
CO[C@@H]1[C@@H](OC)[C@H](C)[C@@](O)(CC(=O)O)O[C@H]1[C@H](C)[C@H]1O[C@@]2(CC[C@@](C)([C@H]3CC[C@@](C)([C@@H]4O[C@@H]([C@H]5O[C@](C)(O)[C@H](C)C[C@@H]5C)C[C@@H]4OC4C[C@H](OC)[C@@H](OC)[C@H](C)O4)O3)O2)C[C@H](O)[C@H]1C (stereo not given in full)	active: 4.22 µM	
CC(C)(C)NCC(O)c1cc(O)cc(O)c1 (stereo not given)	inactive	
CN(C/C=C/c1ccccc1)Cc1cccc2ccccc12	inconclusive [cytotoxic, single point]	
CC(=O)OC/C=C(C)/C=C/C=C(C)/C=C/C1=C(C)CCCC1(C)C	inconclusive [cytotoxic, single point]	
COc1c(C)c2c(c(O)c1C/C=C(\C)CCC(=O)OCCN1CCOCC1)C(=O)OC2	inconclusive [cytotoxic, full curve, poor fit]	
CC/C=C(\C(=O)N[C@@H]1C(=O)N2C(C(=O)OCOC(=O)C(C)(C)C)=C(COC(N)=O)CS[C@H]12)c1csc(N)n1	inactive	
CCCCN=C(N)N=C(N)N	inconclusive [cytotoxic, single point]	
CN1CCCC(CC2c3ccccc3Sc3ccccc32)C1 (stereo not given)	inconclusive [cytotoxic, single point]	
Oc1ccc(Cl)c2cccnc12	inconclusive [cytotoxic, single point]	
CCC[C@H](NC(=O)C(C#N)=Cc1cccc(Br)n1)c1ccccc1	active: 9.35 µM	
O=C1OC(CN2CCOCC2)CN1/N=C/c1ccc([N+](=O)[O-])o1 (stereo not given)	inconclusive [cytotoxic, single point]	
CC(=O)O[C@]1(C(C)=O)CC[C@H]2[C@@H]3C=C(Cl)C4=CC(=O)[C@@H]5C[C@@H]5[C@]4(C)[C@H]3CC[C@@]21C	inconclusive [cytotoxic, single point]	
C#C[C@]1(O)CC[C@H]2[C@@H]3CCC4=Cc5oncc5C[C@]4(C)[C@H]3CC[C@@]21C	inconclusive [cytotoxic, single point]	
CCCC(C(=O)OCCN(CC)CC)(c1ccccc1)c1ccccc1	inconclusive [cytotoxic, single point]	

Structure (SMILES)	Potency	activity change, negative = cytotoxic
CCC(=C(c1ccccc1)c1ccc(OCCN(C)C)cc1)c1ccccc1	inconclusive [cytotoxic, single point]	
Clc1ccc2c(c1)CCc1cccnc1C2=C1CCNCC1	inconclusive [cytotoxic, partial curve, poor fit]	
O=C(O)c1cc(-c2ccccc2)nc2ccccc12	inactive	
Cc1[nH]c2ccccc2c1CCNCc1ccc(C=CC(=O)NO)cc1	active: 0.148 µM	
C=C1C(=O)O[C@H]2[C@@H]1CCC(C)=CCC[C@@]1(C)O[C@@H]21	active: 7.43 µM	
C[C@@H]1CN(CCCn2c3ccccc3c3ccccc32)C[C@H](C)N1	inconclusive [cytotoxic, partial curve, poor fit]	
C[C@](Cc1c[nH]c2ccccc12)(NC(=O)OC1C2CC3CC(C2)CC1C3)C(=O)NC[C@H](NC(=O)CCC(=O)O)c1ccccc1 (stereo not given in full)	inconclusive [cytotoxic, single point]	
CCCCN1CCCC1C(=O)Nc1c(C)cc(C)cc1C (stereo not given)	inactive	
O=C(OCCN1CCOCC1)c1cccnc1Nc1cccc(C(F)(F)F)c1	inactive	
COCCOC(=O)C1=C(C)NC(C)=C(C(=O)OC(C)C)C1c1cccc([N+](=O)[O-])c1 (stereo not given)	inconclusive [cytotoxic, single point]	
CN(C)CCCN1c2ccccc2Sc2ccccc21	inconclusive [cytotoxic, single point]	
Cc1ccc2nc(N)[nH]c(=O)c2c1Sc1ccncc1	inconclusive [cytotoxic, partial curve]	
Cc1c(C)n(CCN(C)C)c2ccc(C(=O)OCCN(C)C)cc12	inconclusive [cytotoxic, single point]	
CCCN(CCc1cccs1)[C@H]1CCc2c(O)cccc2C1	inconclusive [cytotoxic, single point]	
Cn1cc(-c2cnn3c(N)c(Br)c([C@H]4CCCNC4)nc23)cn1	active: 0.059 µM	
O=C(CCN1CCC(c2ccccc2)C1)c1ccc2c(c1)OCCO2 (stereo not given)	inconclusive [cytotoxic, single point]	
CC(C)(O)c1ccccc1CC[C@@H](SCC1(CC(=O)O)CC1)c1cccc(/C=C/c2ccc3ccc(Cl)cc3n2)c1	inactive	
NC(Cc1ccc(Cl)cc1)C(=O)O (stereo not given)		inactive: 16% [at 0.597 µM]
C[C@@H](O[C@H]1OCCN(Cc2n[nH]c(=O)[nH]2)[C@H]1c1ccc(F)cc1)c1cc(C(F)(F)F)cc(C(F)(F)F)c1	inconclusive [cytotoxic, single point]	
Cc1cnc(NC(=O)Nc2cc(Br)c(C)cc2OC[C@@H]2CNCCO2)cn1	inconclusive [cytotoxic, full curve]	
